The other results are listed elsewhere or left out.
B1: ENSG00000198589:be:win_2951|CDS|ENSG00000198589|bound_else_gene|NA|bound_elsewhere_windowed (ssRNA)
RNA: GGGAGUUCUACAGUCCGACGAUCAUUUCACCACAAAUGGUAAUGAAAAUUCAAGUAUAGAGAAGACAAGUUCACUAGAAUCUGCAUCUAAUAUUGAACUGCAAACUACUAAUACAUCUUAUGAAGAAAUGAAAGCUGAGCAAGCAACAGAGGAUUGAGCAUCA
B2: chr15:58597255:58597356:-|3pUTR|ENSG00000137845|unk|FALSE|unique (ssRNA)
RNA: GGGAGUUCUACAGUCCGACGAUCUGGAAAAGGAACCCAAUUUUCUUAUGAACAGAUAUUUUUAACUUAAUGGCACAAAGUCUUAGAAUAUUAUUAUGUGCCCCGUGUUCCCUGUUCUUCGUUGCUGCAUUUUCUUCACUUGCACAACAGAGGAUUGAGCAUCA
B3: chr10:116663695:116664169:-|three_prime_utr|ENSG00000165863|control|control|control (ssRNA)
RNA: GGGAGUUCUACAGUCCGACGAUCCUUUCCUUCCUACUACCGUUUUAAAAAGGGGAUGAAAUGUUUGCAGUGGCCUUUCUGCUUAGCUGGGCCAGCUCCCUGCAACUCACACGGACGGUUCCUCUCCUAGAUGGAAGCUGCCCUCAACAGAGGAUUGAGCAUCA
B4: chr3:141443649:141443750:+|CDS|ENSG00000177311|unk|total|mutant (ssRNA)
RNA: GGGAGUUCUACAGUCCGACGAUCCCUACCAUUGGACAAAAUGGAGGUUCAUUCACAGGUCCAGAACCUUUAUUAUCUGAAAACCGGAUUGGUGAAUUUUCCAGUACCGGAAGUACUUUGCCAGACACGGACCACAUGGUUAAACAACAGAGGAUUGAGCAUCA
B5: chr19:36009119:36009553:-|three_prime_utr|ENSG00000239382|control|control|control (ssRNA)
RNA: GGGAGUUCUACAGUCCGACGAUCGCUGGUGCUCCGCGGCCCCGCCUACACGCGUCUUCUCCACGGCAUCGCCGCCGCCCGCGUAGACGCGCUGGACGCCGCCUCCUCGCCGCCCAAUGCGGCAGCCUGCCCGUCGGCGCGGCCCAACAGAGGAUUGAGCAUCA
B6: chr9:136477283:136477384:-|CDS|ENSG00000148396|msi1|total|mutant (ssRNA)
RNA: GGGAGUUCUACAGUCCGACGAUCGCCCCCGCAGGGUUUUCUCAGCACCCCGGUUUGCUUGUUCCUCACACACAUGCCAGAGACCGCUCUCAGGGACCCUGUGAGCCCCUGCCUGGACCUCUGACACAGCCCAGAGCACAUGCCCAACAGAGGAUUGAGCAUCA
B7: chr21:39342314:39343159:-|three_prime_utr|ENSG00000205581|control|control|control (ssRNA)
RNA: GGGAGUUCUACAGUCCGACGAUCCCCUUCUUGUACAAUCCAGAGGAAUAUUUUUAUCAACUAUUUUGUAAAUGCAAGUUUUUUAGUAGCUCUAGAAACAUUUUUAAGAAGGAGGGAAUCCCACCUCAUCCCAUUUUUUAAGUGCAACAGAGGAUUGAGCAUCA
B8: ENSG00000087460:stop:overlap|stop_codon|ENSG00000087460|stop_codon|NA|stop_codon (ssRNA)
RNA: GGGAGUUCUACAGUCCGACGAUCGAGGCGCCUUCGGCUCGGGCCAUGGCGCCCGGCGCCGGGGGCGCGAGGAGCGGCUCAUCUAGUCAGACCCCCCACCCCGCCACCGCCACCAGACACCACCAUCGCUGUGUAGUGUGCUGGCAACAGAGGAUUGAGCAUCA
B9: chr3:127036549:127036650:+|3pUTR|ENSG00000114554|msi1|total|mutant (ssRNA)
RNA: GGGAGUUCUACAGUCCGACGAUCGUCUACUGGGACAGCAGUCUCCGAGCUACUCCGUACCUCCCUCUGCCAGGUCGUGGAGUCCGGCCCCAGUCCCUACUUGUCACUGGUUCCCACUGUGCUCCUAACUGUGCAGCACCUGGGCAACAGAGGAUUGAGCAUCA
B10: ENSG00000107863:be:win_5051|CDS|ENSG00000107863|bound_else_gene|NA|bound_elsewhere_windowed (ssRNA)
RNA: GGGAGUUCUACAGUCCGACGAUCGUUUAGAUAGCCGGAGACAGCUCUUCAGUUCCCAUAAACUCAUCGAAUGUGAUACUCUUUCCAGGAAAAAAUCAGCUAGAUUCAAGUCAGAUAGUGGAAGUCUAGGAGAUGCCAAGAAUGCAACAGAGGAUUGAGCAUCA
B11: chr12:39550845:39550946:-|3pUTR|ENSG00000173208|unk|FALSE|unique (ssRNA)
RNA: GGGAGUUCUACAGUCCGACGAUCGGUUCCAAGUAUAGUUUCAUAUUUGGCAAUAGAUUCAUCUUAUUCUAAUAUGUUUGGAAUAGCUUUUUGAUUCAAUGAGUCUAGGAAAAUCUGUUACACAUUGAAACCCAAGUCCAGAGACAACAGAGGAUUGAGCAUCA
B12: chr6:53267885:53267986:-|3pUTR|ENSG00000012660|msi1_unk|FALSE|overlapping (ssRNA)
RNA: GGGAGUUCUACAGUCCGACGAUCUUUAAUGUAAAUCUAAUAGUACUUGUAAUUUCUUUCUGCUUAGAAUCUAAAGAUGUGUUUAGAACCUCUUGUUUAAAAAUAAUAGACUGCUUAUCAUAAAAUCACAUCUCACACAUUUGACAACAGAGGAUUGAGCAUCA
B13: chr17:58495858:58495960:-|CDS|ENSG00000108389|unk|FALSE|unique (ssRNA)
RNA: GGGAGUUCUACAGUCCGACGAUCAGAAGAGACUAAGGGACCAGCUCCAGACCCUUCUGCCCAGGAUGAGCUGGGUAGGACUUUAGAUGGCAUAGGGGAGCCACCUGAACAUUGUCCUGAAACAGAAGCUGUCAGUGCACUCUCCAACAGAGGAUUGAGCAUCA
B14: chr17:8173470:8173636:-|3pUTR|ENSG00000179029|msi1|total|mutant (ssRNA)
RNA: GGGAGUUCUACAGUCCGACGAUCUGUUUGUCUGUAUCGUCAGGUGGGAUAAUCCUUACCUGUUCCUCCUCCGGAGGGCAGAUCCGAACAUGAUGAUUGGAGAUGCAUGAAACGUGAUUAACGUCUCUGCGUAAUCAGGACUUGCAACAGAGGAUUGAGCAUCA
B15: chr22:24226630:24226767:-|CDS|ENSG00000099998|control|control|control (ssRNA)
RNA: GGGAGUUCUACAGUCCGACGAUCCUUCUCAACAGAGUCUAUGGCCAGGCCUGAAGGGAGGGUGAACGUGUACCACCACCUUGUAGAGACGCUCAAGUUUGCCAAGGGGCAGAGGUGGAGGCUGGGGGACCCUCGAAGCCACCCCAACAGAGGAUUGAGCAUCA
B16: ENSG00000066933:stop:overlap|stop_codon|ENSG00000066933|stop_codon|NA|stop_codon (ssRNA)
RNA: GGGAGUUCUACAGUCCGACGAUCAUAGCUCAGAGAAUUUGAAUAUGGAGUCUGAAUAUGCUAUCUCUGAGAAAUCAGAAGCUUAGCCCUUAGCUCCCUGAAGACAGCUGGCAAGUCUGAACCUUCCAGCAAGUUGCGAAAGCACAACAGAGGAUUGAGCAUCA
B17: chr5:10679541:10679642:-|3pUTR|ENSG00000112977|msi1|total|mutant (ssRNA)
RNA: GGGAGUUCUACAGUCCGACGAUCCUUCAAGGCCCUGUCACCACCUAUUUCCUGAUCAGUUGGUAUAAACUGAGGGUGGCUUUCCGAGACCCAGACUUGGUUGGCAGCGCUGCCAUGGAACACCCCAGCAAGCACCUCCCAGCCCAACAGAGGAUUGAGCAUCA
B18: chr12:57010726:57010903:-|three_prime_utr|ENSG00000166863|control|control|control (ssRNA)
RNA: GGGAGUUCUACAGUCCGACGAUCGAGGGACCCAUAAUUGCAGCUUUCAUAAUCUUACCAUUGAGGGAGCAUUCCCAACCUGUUAGGUGUCAGGCAGAAUAGGACAUAAGGUUUCUGGGAGCUGGCAUUUAAAGAUUAGAUGAGCAACAGAGGAUUGAGCAUCA
B19: chr3:45095346:45095568:-|CDS|ENSG00000163814|control|control|control (ssRNA)
RNA: GGGAGUUCUACAGUCCGACGAUCAAACAGAGCCGCAAGUUUGUCCCUGGCUGUUUCGUGUGUCUAGAAUCUCGGACCUGCAGUAGCAACCUCACCCUGACAUCUGGCUCCAAACACAAAAUCUCCUUCCUUUGUGAUGAUCUGCAACAGAGGAUUGAGCAUCA
B20: chr11:107429260:107429366:-|CDS|ENSG00000152404|unk|FALSE|unique (ssRNA)
RNA: GGGAGUUCUACAGUCCGACGAUCGAGGAAACCCACAUAUUCAGAUAAAGCACAAAAUUGUCAAGAAAGUAGAGAAUCAGACUUAGUAAAAUAUGGUAACAGUUCAAGGGAUAGAUAUGCUACAACAGAUACUGCAAAAAAUAGCAACAGAGGAUUGAGCAUCA
B21: chr10:87814449:87814585:-|CDS|ENSG00000138138|unk|FALSE|bound_elsewhere (ssRNA)
RNA: GGGAGUUCUACAGUCCGACGAUCUUUAAUUUUCCGUUUGACAAUAUUUGGUGCAGUGACAUACUUUACUAUCAAAUGGAUGGUAGAUGCAAUUGAUCCAACCAGAAAGCAAAAAGUAGAAGCUCAGAAACAGGUAUGAUUGAACAACAGAGGAUUGAGCAUCA
B22: chr15:42943230:42943331:-|3pUTR|ENSG00000159459|msi1|total|mutant (ssRNA)
RNA: GGGAGUUCUACAGUCCGACGAUCAUUAUGCUUAUGAAGUUUACUUACAAACAAGCAACUGAGUCACUUUAUUUUCUUCCGUGCCGUAUGUGAAGGCACUGGUUCAACAGGAUGGCUCCAGAACUGUGUUUUUCUAAUGUUUGGCAACAGAGGAUUGAGCAUCA

biological target: MSI1 full-length (mouse, UniProt Q61474 1-362); test: nsRBNS (natural sequence RNA bind-n-seq); RBNS binding buffer (assumed for nsRBNS): 25 mM Tris pH 7.5, 150 mM KCl, 3 mM MgCl2, 0.01% Triton X-100, 500 ug/ml BSA, 20 U/ml SUPERase-In, 4 C; UNK is unkempt and MSI1 is Musashi-1; names of the RNAs are library labels; protein concentration not given here; high values mean tight binding
UniProt Q61474, sequence (Q61474 whole entry): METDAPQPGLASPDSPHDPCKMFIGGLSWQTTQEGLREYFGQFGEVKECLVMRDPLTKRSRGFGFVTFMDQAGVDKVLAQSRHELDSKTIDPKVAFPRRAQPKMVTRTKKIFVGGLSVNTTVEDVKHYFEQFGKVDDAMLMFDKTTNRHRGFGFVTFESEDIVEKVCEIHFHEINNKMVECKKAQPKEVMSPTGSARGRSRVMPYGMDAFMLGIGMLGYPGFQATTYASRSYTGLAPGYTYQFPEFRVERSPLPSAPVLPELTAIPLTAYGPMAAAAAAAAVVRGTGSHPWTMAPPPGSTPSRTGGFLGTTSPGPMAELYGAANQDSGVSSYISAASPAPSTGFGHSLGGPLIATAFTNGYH

Binder | binding signal [enrichment R]
B1 | 0.486
B2 | 7.03
B3 | 0.509
B4 | 0.294
B5 | 0.439
B6 | 0.53
B7 | 3.5
B8 | 0.204
B9 | 0.462
B10 | 0.921
B11 | 0.329
B12 | 26.6
B13 | 0.568
B14 | 0.396
B15 | 0.57
B16 | 16.9
B17 | 0.763
B18 | 0.899
B19 | 0.476
B20 | 8.95
B21 | 0.606
B22 | 0.237

From publication PMC12136788
